The record followed here is PubChem BioAssay AID1508624 (National Center for Advancing Translational Sciences (NCATS), 2021).

The whole screen tested about 48,000 compounds, of which about 120 (0.25%) were called active. Not shown: some 4% with an inconclusive outcome. The call rests on the fitted dose curve; in most records, active means well fitted activation curve with a large enough effect; inconclusive means small, poorly fitted or top-dose-only effect, or another doubt; inactive means no such curve, though single readings can be large or run the other way. Some of the results follow.

The assay can be described thus: Primary qHTS for Identification of Small Molecule Activators of Huntingtin-Antisense Promoter Activity. Further: nearly all actives have a fitted effect of over 55% in size. The note with it: HEK293 HTT-AS promoter firefly luciferase reporter, 24 h; series mostly up to 57.5 µM; activity change, positive = activation: at the top concentration. An outline of the steps:
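HEK293 luciferase promoter-reporter cells (2,500/well) plated 24 h, then compounds added at up to 57.5 uM final for 24 h at 37 °C. Firefly luminescence by Dual-Glo, normalized to vehicle (0%) and zero RLU (-100%).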
(Quantitative high-throughput screening tests each substance at several concentrations.)
For `CCOC(=O)c1cc(-c2ccc(C)cc2)n(CCC(=O)Nc2nc3c(C)cccc3s2)c1C`, the “activity change, positive = activation” value was inactive: -28.7%. Take `Cc1cc(-n2c(SCC(=O)NCc3ccccc3)nc3ccsc3c2=O)ccc1Cl`: the “activity change, positive = activation” value was inactive: -35.5%.

For the compound `Nc1[nH]nc2nnc(-c3c(-c4ccccc4)nn4ccccc34)cc12`, the “activity change, positive = activation” value is inactive: -18.4%. For `CCCCCC(=O)N1c2ccccc2C(C)(c2ccccc2)CC1(C)C` (stereo not drawn), the “activity change, positive = activation” value is inactive: -18.7%. As to `O=C(c1ccccc1Br)N(Cc1ccco1)C1CCS(=O)(=O)C1` (stereo not drawn), the “activity change, positive = activation” value is inactive: 14%.

As for `O=C(c1ccc2c(c1)N(Cc1ccccc1)C(=O)c1ccccc1S2(=O)=O)N1CCCC1`, the “activity change, positive = activation” value is inactive: -33.3%. As for `CCC(Sc1nc2c(sc3ccccc32)c(=O)n1CCc1ccccc1)C(=O)N(CC)CC` (stereo not drawn), the “activity change, positive = activation” value is inactive: 7.59%. As to `COc1cccc(CCNC(=O)Cn2c(-c3cccs3)cc3ccccc32)c1`, the “activity change, positive = activation” value was inactive: -33%. With `COc1ccc(Cn2c(C(=O)O)c(CNCC(C)c3ccccc3)c3ccc(OC)cc32)cc1` (stereo not drawn), the “activity change, positive = activation” value was inactive: -35.7%. In the case of `COc1ccc(NC(=O)CN2C(=O)C(c3ccc(C(C)(C)C)cc3)=NC2(C)C)cc1Cl`, the “activity change, positive = activation” value was inactive: 8.13%.

As to `Cc1ccc(C)c(N2CCN(C(=O)Nc3cn(CC(C)C)c(=O)c4ccccc34)CC2)c1`, the “activity change, positive = activation” value is inactive: -20.8%. `CCCN1C(=O)C(O)(CC(=O)c2ccc(OC)c(OC)c2)c2ccccc21` (stereo not drawn): the “activity change, positive = activation” value was inactive: -28.3%. The result for `CN1CCN(C(=O)c2ccc3c(c2)N(Cc2cccc(Cl)c2)C(=O)c2ccccc2S3(=O)=O)CC1` reads inactive: -8.27%; that for `COc1ccccc1CNC(=O)C1CCN(S(=O)(=O)c2c(C)noc2/C=C/c2c(C)cc(C)cc2C)CC1`, inactive: 1.61%; that for `O=C(Nc1ccc2nc(SCCOc3ccccc3)sc2c1)c1cccs1`, inactive: -18.3%.

Turning to `O=C(Nc1ccc(C(F)(F)F)cc1)c1cc(S(=O)(=O)NC2CCCCC2)ccc1F`, the “activity change, positive = activation” value is inactive: -39.1%. Take `COc1cc(O)c2c(c1)C(=O)c1cc(C)cc(O)c1C2=O`: the “activity change, positive = activation” value was inactive: -3.29% [at 25.1 µM, percent change from vehicle, -100% = no light]. As to `COc1cccc(CNC(=O)CSc2ncc3c(n2)-c2cc(Cl)ccc2N(C)S3(=O)=O)c1`, the “activity change, positive = activation” value is inactive: 4.88%.

Turning to `CCc1ccc(NC(=O)c2ccc(F)c(S(=O)(=O)NC3CCCCCC3)c2)cc1`, the “activity change, positive = activation” value is inactive: -36.8%. As to `Cc1coc2c(C)c3oc(=O)c(CC(=O)NCc4ccccc4)c(C)c3cc12`, the “activity change, positive = activation” value is inactive: -14.8%.

With `Cc1c(Cl)cccc1NC(=O)CN1C(=O)COc2ccc(S(=O)(=O)N3CCCCCC3)cc21`, the “activity change, positive = activation” value was inactive: -5.49%. Take `Cc1ccc(-n2nnc(-c3nsc(NC(=O)c4ccccc4)n3)c2C)cc1`: the “activity change, positive = activation” value is inactive: 22.7%. For the compound `CCc1cccc(C)c1NS(=O)(=O)c1cc(-c2cc(C)no2)ccc1C`, the “activity change, positive = activation” value is inactive: -19.9%.

In the case of `CCOc1ccc(OCC(=O)NCCS(=O)(=O)N2CCN(c3ccc(F)cc3)CC2)cc1`, the “activity change, positive = activation” value is inactive: 2.07%. Take `Cc1ccc(-n2nc3ccc(NC(=O)c4oc5ccc(C)cc5c4C)cc3n2)cc1`: the “activity change, positive = activation” value was inactive: 5.75%. To `CCOC(=O)n1ccn(C)c1=S` belongs inactive: -10.4%; to `O=C(CCC1CCCC1)N1CCc2c([nH]c3ccccc23)C1c1ccc(Cl)cc1` (stereo not drawn), inactive: -36.2%. For `O=C(Nc1ccccc1F)c1nc(SCc2ccc(F)cc2)ncc1Cl`, the “activity change, positive = activation” value is inactive: -11.3%.

Consider `CCCOc1ccccc1C(=O)N1CCCCC1CCN1CCOCC1` (stereo not drawn), for which the “activity change, positive = activation” value was inactive: -3.26%.

As to `CCN(C(=O)Cn1ncc2c(=O)oc3ccc(C)cc3c21)c1cc(OC)ccc1OC`, the “activity change, positive = activation” value was inactive: -15%.

On to `CCOC(=O)C1CCCN(S(=O)(=O)c2ccc(N3CCCCS3(=O)=O)cc2)C1` (stereo not drawn), for which the “activity change, positive = activation” value was inactive: -7.08%. Take `CC1CCc2noc(NC(=O)c3ccccc3[N+](=O)[O-])c2C1` (stereo not drawn): the “activity change, positive = activation” value is inactive: -12.1%. `Cc1cc(C(F)F)n2nc(C(=O)Nc3cc(Cl)ccc3C)nc2n1`: the “activity change, positive = activation” value is inactive: -7.23%. For the compound `COc1ccc(C(=O)Oc2c(Sc3ccc(Cl)cc3)c(C)nn2C(C)(C)C)cc1OC`, the “activity change, positive = activation” value is inactive: -41.4%. The result for `COc1ccc(NC(=O)CCCn2c(=O)c3cccn3c3ccccc32)c(OC)c1` reads inactive: 7.81%.

Regarding `O=C(NCCc1csc(-c2ccc(C(F)(F)F)cc2)n1)C(=O)Nc1cc(F)ccc1F`, the “activity change, positive = activation” value was inactive: -4.63%. With `O=C(Cn1c(=O)c2ccccc2n(CC(=O)Nc2ccc(Cl)cc2)c1=O)NCCc1ccccc1`, the “activity change, positive = activation” value is inactive: -34.3%. The result for `CCCCN(C)CCNC(=O)C1CCCN(S(=O)(=O)c2ccc3c(c2)oc(=O)n3C)C1` (stereo not drawn) reads inactive: -0.737%; that for `Cc1c(CCNC(=O)Cc2ccc(F)cc2)sc2nc(-c3ccc(F)cc3)nn12`, inactive: 5.51%; that for `CCOC(=O)c1c(C)[nH]c(CCC(=O)NCCCN2CCN(c3cc(Cl)ccc3C)CC2)c1C`, inactive: -40%. For `CCc1ccccc1NC(=O)Cn1c(=O)n(CCCS(=O)(=O)C2CCCCC2)c(=O)c2ccccc21`, the “activity change, positive = activation” value is inactive: -20.9%. As for `CCOc1ccc(C(=O)Nc2cccc(OCc3cc(=O)n4ccccc4n3)c2)cc1`, the “activity change, positive = activation” value was inactive: 7.47%. On to `CCOC(=O)c1[nH]c(C)c(CCC(=O)Nc2ccc(C(C)=O)cc2)c1C`, for which the “activity change, positive = activation” value was inactive: -3.49%. As for `Cc1ccccc1NS(=O)(=O)c1nnc(NC(=O)c2ccc(Cl)cc2)s1`, the “activity change, positive = activation” value was inactive: -10.5%.

For the compound `Cc1cccc(CNS(=O)(=O)c2csc(C(N)=O)c2)c1`, the “activity change, positive = activation” value was inactive: -15.7%. For `CCOc1cccc(CNCCNC(=O)c2nonc2N)c1`, the “activity change, positive = activation” value is inactive: -22.2%. With `O=C1C(c2cccc(Br)c2)N(CCc2ccccc2)C(=O)CN1C1CCCCC1` (stereo not drawn), the “activity change, positive = activation” value is inactive: -16.5%.

Consider `Cc1ccc(Cl)cc1-n1c(=O)c2sc3ccccc3c2n(CC(=O)NC2CCCCC2)c1=O`, for which the “activity change, positive = activation” value was inactive: -24.6%.
